The whole screen tested about 350,000 compounds, of which about 260 (0.074%) were called active. Inconclusive means that the source gave no clear call. Such entries were picked first, then a sample of the others. Calls follow the shape of the dose curve; as a rule, active = well fitted inhibition curve with a large enough effect; inconclusive = small, poorly fitted or top-dose-only effect; inactive = no such curve, though single readings can be large or run the other way. Potencies of inconclusive entries are doubtful fits and often do not repeat.
Target: Ferritin light chain (Equus caballus) (UniProt P02791)
Chain of UniProt P02791 (P02791 whole entry, looked up): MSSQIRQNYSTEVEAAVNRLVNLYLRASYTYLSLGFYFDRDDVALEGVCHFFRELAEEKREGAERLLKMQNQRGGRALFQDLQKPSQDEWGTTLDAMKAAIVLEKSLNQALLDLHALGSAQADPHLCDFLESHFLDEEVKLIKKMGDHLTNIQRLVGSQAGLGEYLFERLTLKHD
Test: qHTS Assay for Identification of Novel General Anesthetics; also: nearly all actives have a fitted effect of over 20% in size
Details: apoferritin/1-aminoanthracene competitive binding, fluorescence; activity change, negative = displacement: at 77.5 µM (top of the series)
Method in brief: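 Read-out: endpoint 1-AMA fluorescence, excitation 380 nm and emission 535 nm, after compounds sit 10 min at room temperature with 10 uM horse-spleen apoferritin in 50% saturated 1-AMA/PBS. Values come from four-parameter Hill fits.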
% is scaled to controls: 0 for no effect and ±100 for the full control effect; potency is read from the fitted curve at half-maximal effect; tags tell the direction and shape of the fitted curve.

Potency, inconclusive:
CC(C)c1ccc(NC(=O)CCc2ccccc2)cc1 5.01 µM [inhibitor, full curve]
CCOC(=O)N1CCN(/[N+]([O-])=N/Oc2ccc([N+](=O)[O-])cc2[N+](=O)[O-])CC1 39.8 µM [inhibitor, partial curve]
COc1cccc(C(=O)N2CCCC(Nc3ccc(C)c(C)c3)C2)c1 (configuration not stated) 31.6 µM [inhibitor, partial curve]
Cc1cc2c(cc1S(=O)(=O)N(C)Cc1ccccc1)n(C)c(=O)c(=O)n2C 15.8 µM [inhibitor, partial curve]
OCCNCc1cccc(OCc2ccc(Cl)cc2)c1 17.8 µM [inhibitor, partial curve]
CCCn1c(N2CCC(Cc3ccccc3)CC2)nc2c1c(=O)[nH]c(=O)n2C 39.8 µM [inhibitor, partial curve]
CCCCCc1nnc(N)s1 28.2 µM [inhibitor, partial curve]
O=C(Nc1ccc(Cl)c(Cl)c1)OCc1cncs1 11.2 µM [inhibitor, partial curve]
CCn1c(-c2cc(-c3ccc(C)cc3)nc3ccccc23)n[nH]c1=S 35.5 µM [inhibitor, partial curve]
Cc1ncc([N+](=O)[O-])n1CCOC(=O)c1ccc(Cl)cc1Cl 14.1 µM [inhibitor, partial curve]
CCCOC(=O)CN1C(=O)c2ccc(C(=O)OCCC)cc2C1=O 28.2 µM [inhibitor, partial curve]
O=C1c2ccccc2COc2ccc(O)cc21 20 µM [inhibitor, partial curve]
O=C(Nc1ccccc1N1CCOCC1)c1ccccc1NS(=O)(=O)c1ccc(F)cc1 44.7 µM [inhibitor, single point]
CCOC(=O)C1=NN(C(=O)c2ccccc2)C(O)(c2ccc(C)cc2)C1 (configuration not stated) 25.1 µM [inhibitor, partial curve]
CC(=O)Nc1ccc(S(=O)(=O)NNC(=O)CCC(=O)Nc2cc(C)ccc2C)cc1 28.2 µM [inhibitor, single point]
CCc1ccc(Oc2nc3c(C)cccn3c(=O)c2/C=C(\C#N)c2nc3ccccc3s2)cc1 25.1 µM [inhibitor, partial curve]
Cc1noc(C)c1COc1ccc(C(=O)OCC(=O)NC23CC4CC(CC(C4)C2)C3)cc1 3.98 µM [inhibitor, partial curve]
CCOC(=O)c1ccc(N2C(=O)C3ON(c4ccccc4)C(c4ccco4)C3C2=O)cc1 (configuration not stated) 17.8 µM [inhibitor, partial curve]
CC(C)NC(C(=O)Nc1cc(Cl)cc(Cl)c1)c1ccccc1 (configuration not stated) 31.6 µM [inhibitor, partial curve]
O=C(CCc1ccc(Oc2cc([N+](=O)[O-])cc([N+](=O)[O-])c2)cc1)N1CCCCCC1 14.1 µM [inhibitor, partial curve]
Cc1ccc([N+](=O)[O-])cc1NC(=O)CN(C(=O)c1ccc(Cl)cc1)C1CCCCC1 3.16 µM [inhibitor, full curve]
COc1ccc(Br)cc1S(=O)(=O)NCCCN1CCOCC1 15.8 µM [inhibitor, partial curve]
O=C(COc1ccccc1-c1ccccc1)N/N=C/c1cccc2ccccc12 7.94 µM [inhibitor, full curve, poor fit]
COc1ccccc1-c1nnc(SCc2nc3ccccc3s2)n1C 39.8 µM [inhibitor, single point]
CCN(CCn1cccn1)C(=O)CCc1nnc(-c2ccccc2)o1 12.6 µM [inhibitor, full curve]
CNS(=O)(=O)c1cccc(C(=O)OCC(=O)C23CC4CC(CC(C4)C2)C3)c1 22.4 µM [inhibitor, partial curve]
Cc1ccccc1CC(=O)N1CCCc2ccccc21 22.4 µM [inhibitor, partial curve]
Cc1cccc2sc(NC(=O)C3CSC4(C)CCC(=O)N34)nc12 (configuration not stated) 25.1 µM [inhibitor, single point]
O=C(CCC1N=C2c3ccccc3N=C(SCc3cccc(F)c3)N2C1=O)NCc1ccc(F)cc1 (configuration not stated) 50.1 µM [inhibitor, single point]
COc1ccc(N2C(=O)CC3(CCCC3)CC2=O)cc1 50.1 µM [inhibitor, single point]
COc1ccccc1N=c1scc(-c2ccc3c(c2)NC(=O)CO3)n1CC1CCCO1 (configuration not stated) 31.6 µM [inhibitor, partial curve]
CCN(CC)c1cc2nonc2c2nonc12 31.6 µM [inhibitor, partial curve]
COc1ccc(C(=O)c2cn(Cc3cccc(C)c3)c3cc4c(cc3c2=O)OCCO4)cc1OC 20 µM [inhibitor, partial curve]
O=C1CC(N2CCCc3ccccc32)C(=O)N1c1ccccc1 (configuration not stated) 31.6 µM [inhibitor, partial curve]
COc1cc(C(=S)N2CCCC2)ccc1OC(=O)c1ccc(Cl)cc1[N+](=O)[O-] 25.1 µM [inhibitor, partial curve]
CCN(CC)CCNC(=O)Cn1ncc2c3ccccc3n(Cc3ccccc3C)c2c1=O 17.8 µM [inhibitor, partial curve]
CCc1ccc(-n2c(SCC(=O)Nc3cc(C)[nH]n3)nc3[nH]ncc3c2=O)cc1 35.5 µM [inhibitor, partial curve]
CCN(Cc1ccccc1)C(=O)COc1ccccc1 31.6 µM [inhibitor, partial curve]
O=C(Nc1ccccc1-c1ccccc1)c1ccc(Br)o1 35.5 µM [inhibitor, single point]
O=C(CCC(=O)OCC(=O)c1ccccc1)Nc1cccc2cccnc12 20 µM [inhibitor, partial curve]
O=C(Nc1ccccc1Br)c1c(F)cccc1Cl 31.6 µM [inhibitor, single point]
CCSc1ncc(Cl)c(C(=O)Nc2ccc(S(=O)(=O)N3CCCCC3CC)cc2)n1 (configuration not stated) 31.6 µM [inhibitor, partial curve]
CC1(C)NS(=O)(=O)Oc2ccccc21 25.1 µM [inhibitor, partial curve]
CC1(C)CC(=O)C2=C(C1)NC1=C(C(=O)c3ccccc31)C2c1cccnc1 (configuration not stated) 35.5 µM [inhibitor, partial curve]
COc1ccccc1OCCn1cc(C(=O)c2ccco2)c2ccccc21 12.6 µM [inhibitor, partial curve]
COc1cccc(S(=O)(=O)NCC(=O)Nc2ccc(C(C)(C)C)cc2)c1 50.1 µM [inhibitor, single point]
CC(=O)CCc1oc2c([N+](=O)[O-])cccc2c1-c1ccc(C)o1 39.8 µM [inhibitor, single point]
O=C(c1ccc(F)cc1)c1ccc(CN2C(=O)c3ccccc3C2=O)o1 28.2 µM [inhibitor, partial curve]
CCOc1ccc(N(CC)C(=O)c2cc3c(s2)-c2ccc(Cl)cc2SC3)cc1 7.08 µM [inhibitor, single point]
BrC(=C\c1ccccc1)/C=N/N1CCN(c2ccccc2)CC1 31.6 µM [inhibitor, single point]
CCn1c2ccc(F)cc2c2nnc(NN)nc21 35.5 µM [inhibitor, single point]
Cc1ccsc1C(=O)NCc1ccccc1Cl 35.5 µM [inhibitor, single point]
O=C(Nc1ccccc1F)NC1CCCCCCC1 25.1 µM [inhibitor, partial curve]

Activity change, negative = displacement, inactive:
Fc1ccc(-c2noc3ncnc(N4CCCCC4)c23)cc1 51.1%
COc1ccc(CNC(=O)Nc2cccc(C)c2)cc1 -9.47%
O=S(=O)(c1ccc(Cl)cc1)N1CCN(CCc2ccccc2)CC1 0.995%
CC(Cc1cccs1)NC(=O)Nc1ccc(Cl)cc1 (configuration not stated) -16.1%
N#Cc1c(C(F)(F)F)cc(-c2ccccc2)nc1SCc1nc(N)nc(N2CCOCC2)n1 -6.16%
O=C(Nc1ccc2c(c1)C(=O)NC2=O)c1cc(Cl)ccc1Cl -6.13%
Cc1cc(=O)oc2cc(NS(=O)(=O)c3ccc(F)cc3)ccc12 425%
Cc1ccc(-c2nnn(CC(=O)N(CCN3CCOCC3)C(C(=O)NC(C)(C)C)c3ccco3)n2)cc1 (configuration not stated) -6.56%
Cc1nc(NCc2ccccc2)c2nc(-c3ccccc3)n(CCN(C)C)c2n1 -7.35%
CCOc1nc(NCCC2=CCCCC2)nc(N2CCOCC2)n1 3.09%
COCCNc1nc(CSc2ccccc2)nc2sc(C)c(C)c12 -1.17%
CCOC(=O)c1ccc(NC(=O)C2CCN(S(=O)(=O)Cc3ccccc3)CC2)cc1 136%
Cc1ccc(-c2cc(C(=O)O)c3cc(Br)ccc3n2)o1 -6.32%
Cc1cc(C)cc(NC(=O)CSc2oc(-c3cccs3)nc2S(=O)(=O)c2ccc(Br)cc2)c1 0.619%

Reference: PubChem BioAssay AID485281 (National Center for Advancing Translational Sciences (NCATS), 2010)
